The source of these data is the RNAGym collection of RNA variant scans (doi:10.1073/pnas.2313332121).

First the molecules themselves.
B1: TPR 5TU (parent)
chain: GGAUCUUCUCGAUCUAACAAAAAAGACAAAUCUGCCACAAAGCUUGAGAGCAUCUUCGGAUGCAGAGGCGGCAGCCUUCGGUGGCGCGAUAGCGCCAACGUUCUCAACUAUGACACGCAAAACGCGUGCUCCGUUGAAUGGAGUUUAUCAUG

Variants at the floor of the assay are shown more often than the library holds them.

Variants of B1 are the subject of this series. The experiment in a line: polymerase ribozyme fitness, log enrichment relative to wild type (log ratio); higher = more active; in vitro selection for triplet polymerase activity. In short, it runs like this: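 Mutant libraries of each subunit of a heterodimeric triplet polymerase ribozyme were built by PCR and transcribed. Each library went through one round of in vitro selection in triplicate: annealing with biotinylated primer, partner subunit and triplets, frozen incubation at −7 °C, gel excision of extended constructs, streptavidin-bead capture and RT-PCR. Input and output libraries were Illumina-sequenced; only genotypes with ≥10 input reads and ≥1 read per output were kept. Fitness is log2(genotype enrichment/wild-type enrichment), using inverse-variance-weighted replicate averages.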
Regarding GGAUCUUCUCGAUCUAACAAAAGUGAGAAAUCUGCCACAAAGCUUGAGAGCAUCAUCGGAUGCAGAGGCGGCAGCCUUCGGUGGCGCGAUAUCGCCAACGUUCUCAACUAUGACACGCAAAACGCGUGCUCCGUUGAAUGGAGUUUAUCAUG [A23G A24U C27G U55A G92U], the “polymerase ribozyme fitness (log ratio)” value is -3.98.
Take GGAUCUUCUCGAUCUAACAAAACAGACAAAUCUGCCACAAAGCUUCAGAGCAUGUUCGGAUGCAGAGGCGGCAGCCUUCGGUGGCACGAUAGCGCCAACCUUCUCAACUAUGACACGCAAAACGCGUGCUCCGUUGAAUGGCGUUUAUCAUG [A23C G46C C54G G86A G100C A142C]: the “polymerase ribozyme fitness (log ratio)” value was at most -4.2.
For the variant GGAUCUUCUCGAUCUAACAAAAGAGGCAAAUCUGCCACAAAGCUUGAGAGCAUCUUCGGCUGCAGAGGCGGCAGCCUUCGGUGGCGCGAUUGCGCUAACGUUCUCAACUAUGACACGCAAAACGCGUGCUCCGUUGAACGGAGUUCACCAUG [A23G A26G A60C A91U C96U U139C U146C U148C], the “polymerase ribozyme fitness (log ratio)” value was at most -4.2.
To GGAUCUUCUCGAUCUAACAAAACAGACAAAUCUGCCACAAAGCUUGAGAGCAUCUUCGGAUGCAGAGGCGGCAGCCUUCGGUGGCGCGAUAGCUCAAUCGUUCUCAACUAUGACACGCAAAACGCGUGCUCCGUUGAAUGAAGUUGAUCAUA [A23C G94U C96A A98U G141A U146G G152A] belongs at most -4.2; to GGAUCUUCUCGAUCUAACAAAACAGACAAAUCUGCCACAAAGCCUGAGAGCAUCUUCGGAUGCCGAGGCGGCAGCCUUCGGUGGCGCGAUACCGCCUACGUUCUCAACUAUGACACGCAAAACGCGUGCUCCGUUGAAUGGAGUUUAUCAUG [A23C U44C A64C G92C A97U], at most -4.2.
With GGAUCUUCUCGAUCUAACAAAACAGACAAAUCUGCCACAAAGCUUGAGAGCAUCUUCGGAUGCAGAGGCGGCACCCAUCGGUGGCGCGAUAUCGCCAACGUUCUCAACUAUGACACGCAAAACGCGUGCUGCGUUGAAUGGAGUUUAUCAUG [A23C G74C U77A G92U C131G], the “polymerase ribozyme fitness (log ratio)” value is at most -4.2.
To GGAUCUUCUCGAUCUAACAAAACAGACAAAUCUGCCACAAAGCUUGAGAGCAUCUUCAGAUGCAGAGGCGGCAGCCUUCGGUGGCGCGAUAGCGCCUACGUUCUCAACUAUGACACGCCAAACGCGUGCUCCGUUGAAUGGAGUAAAUCAUG [A23C G58A A97U A119C U145A U146A] belongs at most -4.2; to GGAUCUUCUCGAUCUAACAAAACAGACAAAUCUGCCACAAAGCUUGAGAGCAUCUGCGGAUGCAGAGGCGGCAGCCUUCGGUUGCGCGAUAGCGCCAACGUUCUCAACUAUGACACGCAAAACGCAUGCUCCGUUGAAUGGAGUUUAUCAUG [A23C U56G G83U G126A], at most -4.2.
The result for GGAUCUUCUCGAUCUAACAAAACAGACAAAUCUGCCACAAAGCUUGAGAGCAUCCUCGGAUGCAGAGGCGACAGCCUUCGGUGGCGGGAUAGCACAAACGUUCUCAACUAGGACACGCAAAACGCGUGCUCCGUUGAAUGGAGUUUAUCAUG [A23C U55C G71A C87G G94A C96A U111G] reads at most -4.2.
The result for GGAUCUUCUCGAUCUAACAAAACAGACAAAUCUGCCACAAAGCUUGAGAGCAUCUUCUGAUGCAGAUGCGGCAGCCUUCUGUGGCGCGAUAGCGCCAACGUUCUCAACUAUGACACGCAAAACGCGUGCUCCGUUGAAUGGAGUUUAUCAUG [A23C G58U G67U G80U] reads at most -4.2; that for GGAUCUUCUCGAUCUAACAAAACAGACAAAUCUGCCACAAAGCUAGAGACCAUCUUCGGAUGCAGAGGCGGCAGCCUUCGGUGGCGCGAUUGCGCCAACGUUCUCAACUAUGCCACGCAAUACGCGUGCUCCGUUGAAUCGAGUUUAUCAUG [A23C U45A G50C A91U A113C A121U G140C], at most -4.2.
Consider GGAUCUUCUCGAUCUAACAAAACAGACAAAUCUGCCACAAAUCUUGAGAGCAUCUUCGGAUGCAGAGGCGGCAGCCUUCGGUGGCGCGAUGGCGCCUACGUUCUCAACUAUGACUAGCAAAACGCGUGCUCCGUUGAAUGGAGUUUAUCAUG [A23C G42U A91G A97U A115U C116A], for which the “polymerase ribozyme fitness (log ratio)” value was at most -4.2.
For the variant GGAUCUUCUCGAUCUAACAAAACAGACAAAUCUGCCACAAAGCUUGAGAGCAACUUCGGAUGCAGAGGCGGCAGCCUUCCGUGGCGCGAUAGCGCCAACGUUCUCAACUAUGACACGCAAAACGCGUGCUCCGUUGAAUGGAGUUUAUCAUG [A23C U53A G80C], the “polymerase ribozyme fitness (log ratio)” value is at most -4.2.
The result for GGAUCUUCUCGAUCUAACAAAACAGACAAAUCUGCCACAAAGCUCGAGAGCAUCUUCGGAGGCAGAGGCGGCAGCCUUCGGUGGCGCGGUAGCGCCAAAGUUCUCAACUAUGACACGCAAAACGCGUGCUCCGUUGAAUGGAGUUUAUGAUG [A23C U45C U61G A89G C99A C149G] reads at most -4.2; that for GGAUCUUCUCGAUCUAACAAAACAGACAAAUCUGCCACAAAGCUUGAGAGCAUCAUCGGAUGCAGAGGCGGCAGCCUUCGGUGGCGCAAUAGCGUCAACGUUCUCAACUAUGACACGCAAGACGCGUGCUCCGAUGAAUGGAGUUUAUCAUG [A23C U55A G88A C95U A121G U134A], at most -4.2.
Turning to GGAUCUUCUCGAUCUAACAAAACAGACAAAUCUGCCACAAAGCUUGAGAGCAUCUACGGAUGCAGAGGCGGCAGCCUUCGGUGGCGCUAUAGCGCCAACGUUAUCGACUAUGACACGCAUAACGCGUGCUCCGUUGAAUGGAGUUUAUCAUG [A23C U56A G88U C103A A106G A120U], the “polymerase ribozyme fitness (log ratio)” value is at most -4.2.
To GGAUCUUCUCGAUCUAACAAAACAGACAAAUCUGCCACAAAGCUUGAGAGCAACUUCGGAUGCAGAGGCGGCAGCCUUCGGUGGCGCGAUAGUGCCAACGUUCUCAACUAUGACACGCAAAACGCGUGCUCCGGUGAAUGGAGUUUAUCAUG [A23C U53A C93U U134G] belongs at most -4.2; to GGAUCUUCUCGAUCUAACAAAACAGACAAAUCUGCCACAAAGCUUGAGAGCAUCUUCUGAUGCAGAGGCGGCAGCCUUCGGUGGCGGGAUAGCGCCAACGUUCUCAAAUAUGACACGCAAAACGCGUGCUCCGUCGAAUGGAGUUUAUCAUG [A23C G58U C87G C108A U135C], at most -4.2; to GGAUCUUCUCGAUCUAACAAAACAGACAAAUCUGCCACAAAGCUUAAGAGCAUCUUCGGAUGCAGAGGCAGCAGCCUUCGGUGGCGAGAUAGCGCCAACGUUUUCAACUAUGACACGCAAAACGCGUGCUCCGUUGAGUGGAGUUUAUCAUG [A23C G46A G70A C87A C103U A138G], at most -4.2.
